Reference: PubChem BioAssay AID485281 (National Center for Advancing Translational Sciences (NCATS), 2010)
The campaign covered roughly 350,000 compounds. About 260 (0.074%) were called active. Inconclusive means that the source gave no clear call. Such entries were picked first, then a sample of the others. The call rests on the fitted dose curve; in most records, active means well fitted inhibition curve with a large enough effect; inconclusive means small, poorly fitted or top-dose-only effect; inactive means no such curve, though single readings can be large or run the other way. Where the call is inconclusive, the potency comes from a doubtful curve fit.

Biological target: Ferritin light chain (Equus caballus) (UniProt P02791)
Sequence of UniProt P02791 (P02791 whole entry, looked up): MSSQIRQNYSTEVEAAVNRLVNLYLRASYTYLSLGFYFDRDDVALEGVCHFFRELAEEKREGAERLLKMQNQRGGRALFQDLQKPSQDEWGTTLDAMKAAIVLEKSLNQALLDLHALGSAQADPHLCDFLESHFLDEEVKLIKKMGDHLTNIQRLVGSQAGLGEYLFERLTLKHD
Experiment: qHTS Assay for Identification of Novel General Anesthetics; further: nearly all actives have a fitted effect of over 20% in size
Conditions: apoferritin/1-aminoanthracene competitive binding, fluorescence; series mostly up to 77.5 µM
How it was run: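 In PBS, apoferritin at 10 uM is loaded with 1-AMA from a 50% saturated solution. After 10 min of compound exposure at ambient temperature, reduced 535 nm fluorescence indicates probe displacement.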
Potency means the concentration at half of the fitted maximal effect; tags describe the fitted curve by direction and shape.

Which Potency does the source give for `CNC(=S)N/N=C(\C)c1ccc(Cl)c(Cl)c1` here?
The Potency was inconclusive: 35.5 µM [inhibitor, single point].

How did the Potency turn out when `Cc1cc(=O)c2cc(C(=O)Nc3ccccc3C)ccc2[nH]1` was run?
The Potency was inconclusive: 25.1 µM [inhibitor, single point].

`CCC(C)c1ccccc1NC(=O)COC(=O)c1ccc(C)c(NC(=O)c2ccco2)c1` (centres undefined) was tested. Which Potency did it give?
The Potency was inconclusive: 15.8 µM [inhibitor, partial curve].

Which Potency does the source give for `Nc1ccc(N2CCN(CCCCN3C(=O)C4CCCN4C3=O)CC2)cc1` (centres undefined) here?
The Potency was “inactive”.

With `COc1ccc(CCC(=O)Nc2cnc3ccccc3c2)cc1` as the molecule, how does the Potency read?
The Potency was “inactive”.

With `C/C(CC(=O)Nc1ccc(OCc2ccccc2)cc1)=N\NC(=O)C(=O)Nc1ccccc1C` as the molecule, how does the Potency read?
Its Potency is inconclusive: 20 µM [inhibitor, partial curve].

With `CC(C)(C)NC(=O)C(c1ccncc1)N(Cc1cccs1)C(=O)Cn1nnc(-c2cccs2)n1` (centres undefined) as the molecule, how does the Potency read?
Its Potency is inconclusive: 25.1 µM [inhibitor, partial curve].

With `COc1ccc(Cn2ccc3nc(C)c(C(=O)NCc4cccc(OC)c4)cc3c2=O)cc1` as the molecule, how does the Potency read?
The Potency was “inactive”.

With `CCc1ccccc1NC(=O)Cn1c2ncccc2c(=O)n1-c1ccccc1` as the molecule, how does the Potency read?
Its Potency is “inactive”.

Which Potency does the source give for `Cc1nn(-c2ccccc2)cc1C(=S)Nc1ccccc1` here?
The Potency was “inactive”.

Which Potency does the source give for `Brc1ccc(NCc2cccc3ccccc23)nc1` here?
The Potency was inconclusive: 50.1 µM [inhibitor, single point].

For `CCCc1nc2ccccc2c(C(=O)OCC(=O)Nc2ccc(S(=O)(=O)N3CCOCC3)cc2)c1CC`, which Potency is on record?
The Potency was inconclusive: 17.8 µM [inhibitor, partial curve].

With `Cn1ncc2c(Nc3ccc4ccccc4c3)ncnc21` as the molecule, how does the Potency read?
The Potency was “inactive”.

`O=C(COC(=O)c1ccc([N+](=O)[O-])s1)NC(=O)NCc1ccccc1` was tested. Which Potency did it give?
The Potency was inconclusive: 14.1 µM [inhibitor, partial curve].

How did the Potency turn out when `CC(C)c1ccc(/C=N/NC(=O)c2nnn(-c3nonc3N)c2CSC2=NCCS2)cc1` was run?
The Potency was inconclusive: 22.4 µM [inhibitor, partial curve].

With `CC1=CC(C)(C)Nc2ccccc21` as the molecule, how does the Potency read?
The Potency was inconclusive: 28.2 µM [inhibitor, single point].

Which Potency does the source give for `COc1cc(/C=N/O)ccc1OCc1ccc(Cl)cc1` here?
The Potency was inconclusive: 28.2 µM [inhibitor, partial curve].

`COc1ccc(/C=N/NC(=O)c2nn(-c3ccccc3)c(=O)c3c(N)scc23)cc1` was tested. Which Potency did it give?
Its Potency is inconclusive: 14.1 µM [inhibitor, partial curve, poor fit].

For `Cc1ccc(NC(=O)Cn2c(=O)n(CCCCC(=O)NCc3ccccc3Cl)c(=O)c3ccccc32)cc1`, which Potency is on record?
Its Potency is “inactive”.

For `Cn1c(NC(=O)c2ccccc2)cc(=O)n(C)c1=O`, which Potency is on record?
Its Potency is “inactive”.

For `CCOc1ccccc1/C=N/NC(=O)c1ccc(Cn2cc([N+](=O)[O-])cn2)o1`, which Potency is on record?
The Potency was inconclusive: 35.5 µM [inhibitor, single point].

For `O=C(NCCc1ccccc1)c1noc2c1CCCCC2`, which Potency is on record?
Its Potency is inconclusive: 12.6 µM [inhibitor, partial curve].

Which Potency does the source give for `CC(C)(C)c1ccc(NC(=O)COC(=O)c2ccc([N+](=O)[O-])s2)cc1` here?
Its Potency is inconclusive: 14.1 µM [inhibitor, partial curve].

Which Potency does the source give for `C=CCn1c(=O)/c(=C/c2ccc(C)o2)s/c1=C(/C#N)C(=O)c1ccccc1` here?
Its Potency is inconclusive: 44.7 µM [inhibitor, single point].

Which Potency does the source give for `C=CCn1c(C)cc(C(=O)CN2C(=O)NC3(CCCc4ccccc43)C2=O)c1C` (centres undefined) here?
Its Potency is inconclusive: 20 µM [inhibitor, partial curve, poor fit].

With `N#CCCC(CCC#N)C1=NCCc2ccccc21` as the molecule, how does the Potency read?
Its Potency is “inactive”.

`O=C(CSCc1cccc(Cl)c1)NCc1ccc2c(c1)OCO2` was tested. Which Potency did it give?
Its Potency is inconclusive: 25.1 µM [inhibitor, partial curve].

`CCOc1ccc2nc(NC(=O)CCC(=O)c3cccs3)sc2c1` was tested. Which Potency did it give?
Its Potency is “inactive”.

How did the Potency turn out when `CN(C)CCNc1oc(COc2ccc(Cl)cc2Cl)nc1C#N` was run?
Its Potency is inconclusive: 31.6 µM [inhibitor, partial curve].

`COc1cc(C2c3c(-c4ccccc4O)n[nH]c3C(=O)N2Cc2ccco2)ccc1OCC(C)C` (centres undefined) was tested. Which Potency did it give?
Its Potency is inconclusive: 12.6 µM [inhibitor, partial curve].

Which Potency does the source give for `O=C1C2C3C=CC(C4CC34)C2C(=O)N1/N=C/c1cccs1` (centres undefined) here?
Its Potency is inconclusive: 31.6 µM [inhibitor, partial curve].

How did the Potency turn out when `CC(/C=C\c1cccnc1)=C/C(=O)O` was run?
The Potency was “inactive”.

For `COc1ccc(N(C(=O)/C=C\C(=O)Nc2ccc(C)cc2)C(C(=O)NCc2ccco2)c2ccc(C)cc2)cc1` (centres undefined), which Potency is on record?
The Potency was inconclusive: 6.31 µM [inhibitor, full curve, poor fit].

For `Cc1ccc2cccc(OC(=O)c3ccc4c(c3)OCCO4)c2n1`, which Potency is on record?
The Potency was inconclusive: 28.2 µM [inhibitor, single point].

Which Potency does the source give for `CCC(CC)C(=O)Nc1nnc(SCc2cc(=O)n3cccc(C)c3n2)s1` here?
The Potency was inconclusive: 50.1 µM [inhibitor, single point].

With `CCOc1ccc(CN(C(=O)c2cc(=O)c3cc(C)cc(C)c3o2)C2CCS(=O)(=O)C2)cc1` (centres undefined) as the molecule, how does the Potency read?
The Potency was inconclusive: 31.6 µM [inhibitor, partial curve].

`Cc1ccc2c(c1)c(=O)c(C(=O)c1ccc3c(c1)OCO3)cn2Cc1ccc(Cl)cc1` was tested. Which Potency did it give?
The Potency was “inactive”.

Which Potency does the source give for `CC12CCC(C(=O)N3CCCc4ccccc43)(CC1=O)C2(C)C` (centres undefined) here?
Its Potency is inconclusive: 25.1 µM [inhibitor, partial curve].

For `C=CCn1c(SCc2c(F)cccc2Cl)nnc1-c1ccco1`, which Potency is on record?
Its Potency is inconclusive: 31.6 µM [inhibitor, partial curve].

`CC(C)C(=O)N1CCN(c2nc(-c3ccc(Cl)cc3)cs2)CC1` was tested. Which Potency did it give?
The Potency was “inactive”.

Which Potency does the source give for `Cc1ccc(N2C(=O)c3ccccc3C(C)(C)C2=O)cc1` here?
Its Potency is inconclusive: 22.4 µM [inhibitor, partial curve].

With `Cc1oc2ncnc(N3CCCCC3)c2c1C(=O)N1CCN(c2cccc(Cl)c2)CC1` as the molecule, how does the Potency read?
Its Potency is inconclusive: 2.51 µM [inhibitor, full curve, poor fit].

`Cc1c(Cl)cccc1NC(=S)NCCC(c1ccccc1)c1ccccc1` was tested. Which Potency did it give?
The Potency was “inactive”.

How did the Potency turn out when `Cc1nnc(N/N=C/c2ccc(-c3ccc(Br)cc3)o2)n1N` was run?
Its Potency is inconclusive: 31.6 µM [inhibitor, partial curve].
